This note sets out measurements from PubChem BioAssay AID360 (National Center for Advancing Translational Sciences (NCATS), 2006).

Among all 48,000 compounds or so, about 550 (1.1%) were called active. About 4% were inconclusive and are not listed. Cut-off read from the data, not from the text of the source: active = potency below about 15 µM; inconclusive = mostly about 16 µM to 33 µM; inactive = weaker than that. The list shows a part of the results. A value given as a limit tells only on which side of the number the result lay.
Potency is the fitted concentration of half-maximal effect.

Sequence of UniProt P04062 (P04062 whole entry, looked up): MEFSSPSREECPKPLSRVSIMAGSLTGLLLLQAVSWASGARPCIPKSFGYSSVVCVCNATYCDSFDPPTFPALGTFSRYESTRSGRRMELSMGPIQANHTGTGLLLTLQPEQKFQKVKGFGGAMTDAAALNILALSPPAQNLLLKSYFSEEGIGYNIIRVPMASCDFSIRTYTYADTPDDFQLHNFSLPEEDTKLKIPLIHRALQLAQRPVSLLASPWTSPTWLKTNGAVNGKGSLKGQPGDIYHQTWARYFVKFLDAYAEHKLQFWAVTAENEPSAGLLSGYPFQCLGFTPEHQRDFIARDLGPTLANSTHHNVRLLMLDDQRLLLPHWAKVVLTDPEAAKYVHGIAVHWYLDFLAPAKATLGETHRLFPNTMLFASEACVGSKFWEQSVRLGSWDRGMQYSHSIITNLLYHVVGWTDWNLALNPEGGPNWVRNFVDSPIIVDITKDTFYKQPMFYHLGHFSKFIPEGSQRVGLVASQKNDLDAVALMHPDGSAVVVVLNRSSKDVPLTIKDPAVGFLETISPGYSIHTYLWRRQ

For this assay, the target named is Lysosomal acid glucosylceramidase (Homo sapiens) (UniProt P04062). Nature of the assay: Glucocerebrosidase.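 Note: the screen sought inhibitors.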 To be noted: purified enzyme, resorufin glucoside fluorescence (screen aimed at inhibitors), 20 min. The procedure, abridged:
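Normal human glucocerebrosidase (0.2 nM final) was assayed with resorufin β-D-glucopyranoside (30 uM final) in 50mM citric acid/KH2PO4, 10mM sodium taurocholate, 0.01% tween-20, pH 5.9. Compounds were titrated; fluorescence (Ex 548, Em 600) read after 20 min at RT.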
Regarding `O=C(CC1Nc2ccccc2NC1=O)Nc1ccccc1` (stereo unspecified), the Potency was inactive: > 76.9 µM. As to `Cn1c(=NC(=O)CN2C(=O)C3CC=CCC3C2=O)sc2ccccc21` (stereo unspecified), the Potency is inactive: > 76.9 µM. As for `O=C(Nc1ccc2c(c1)OCO2)c1cccc(S(=O)(=O)N2CCCC2)c1`, the figure is inactive: > 76.9 µM; as for `c1coc(Cn2c(SCc3nc4ccccc4[nH]3)nnc2-c2cccs2)c1`, inactive: > 76.9 µM.

On to `CCOc1ccc(OCC)c(NC(=O)C2CCN(c3ncccn3)CC2)c1`, for which the Potency was inactive: > 76.9 µM. Turning to `O=C(CCC(=O)NC1CC1)Nc1nnc(C2CCCCC2)s1`, the Potency is inactive: > 76.9 µM. Next, `Cc1ccc(CC2(O)CC(C)N(C)CC2C)c(C)c1` (stereo unspecified): inactive: > 76.9 µM. As for `Cc1cc2ncn(S(=O)(=O)c3ccc(S(=O)(=O)N4CCOCC4)cc3)c2cc1C`, the figure is inactive: > 76.9 µM; as for `CN(C)C(=O)N1CCC(C(=O)NCc2ccc(F)cc2Cl)CC1`, inactive: > 76.9 µM; as for `COc1ccc(CCNC(=O)CN2C(=O)c3ccccc3S2(=O)=O)cc1OC`, inactive: > 76.9 µM. Next, `CCS(=O)(=O)N1CCC(NC(=O)c2ccco2)CC1`: inactive: > 76.9 µM; `CCN1CCN(Cc2ccc(OC)c(OCc3ccccc3)c2)CC1`: inactive: > 76.9 µM; `COc1cccc(CNC(=O)c2ccc(NC(=O)C3CCCO3)cc2)c1` (stereo unspecified): inactive: > 76.9 µM.

With `O=C1c2ccccc2C(=O)N1CCCCCc1nc(-c2ccccc2)no1`, the Potency is inactive: > 76.9 µM. As for `Cc1cnc(-c2nnc(N(C)C(=O)c3cnccn3)s2)cn1`, the figure is inactive: > 76.9 µM; as for `CCc1ccc(N2CC(C)Cn3c2nc2c3c(=O)n(CCN3CCOCC3)c(=O)n2C)cc1` (stereo unspecified), inactive: > 76.9 µM; as for `CCOC(=O)C(NC(=O)c1ccccc1OCC)(Nc1ncccn1)C(F)(F)F` (stereo unspecified), inactive: > 76.9 µM. Next, `O=C(Nc1cccc2c1CCCC2)C1CCN(C(=O)NC2CCCCC2)CC1`: inactive: > 76.9 µM. Next, `O=C(COc1ccccc1)NCC(=O)NC1=NCCS1`: inactive: > 76.9 µM; `Cc1ccc(-c2nnc(N(C)C(=O)c3cccnc3)s2)cn1`: inactive: > 76.9 µM.

On to `CCc1cccc2c(=O)c(C(=O)N3CCOCC3)c[nH]c12`, for which the Potency was inactive: > 76.9 µM. Next, `COCC(=O)Nc1c(C(=O)Nc2cccc(OC)c2)oc2ccccc12`: inactive: > 76.9 µM. Next, `Cc1ccc2c(c1)CCCN2C(=O)c1c(C)noc1C`: inactive: > 76.9 µM; `N#CN(CC(N)=O)c1nc(N2CCCCC2)nc(N2CCCCC2)n1`: inactive: > 76.9 µM; `Fc1ccc(-c2ccc(-c3nn4c(-c5ccco5)nnc4s3)o2)cc1`: inactive: > 76.9 µM.

Regarding `CCOc1ccc(N2C(=O)CSC23CCCCC3)cc1`, the Potency is inactive: > 76.9 µM. Next, `CC(C)n1cc(/C=C(\C#N)S(=O)(=O)c2ccccc2)c2ccccc21`: inactive: > 76.9 µM. As for `O=C(Cn1cnc2ccccc2c1=O)NCC(=O)N1CCN(c2ccccn2)CC1`, the figure is inactive: > 76.9 µM. Next, `O=C(c1cn(-c2ccccc2)nc1-c1ccncc1)n1nnc2ccccc21`: inactive: > 76.9 µM; `Cc1cc(C)n2nc(SCN3C(=O)c4ccccc4C3=O)nc2n1`: inactive: > 76.9 µM; `Cn1c(=O)n(Cc2ccccc2F)c(=O)c2c1nc1n2CCCN1CCc1ccccc1`: active: 13.5 µM. As for `CCCC(c1nnnn1Cc1cccs1)N1CCN(C2CCCC2)CC1` (stereo unspecified), the Potency is inactive: > 76.9 µM. As for `CCc1cccc(CC)c1NC(=O)CN1CCN(c2ccccc2)CC1`, the figure is inactive: > 76.9 µM; as for `OC(COC1CCCCC1)CN1CCN(c2ccccc2)CC1` (stereo unspecified), inactive: > 76.9 µM. Regarding `O=C(NC1CCCC1)C(c1cccs1)N(CC1CCCO1)C(=O)Cc1cccs1` (stereo unspecified), the Potency was inactive: > 76.9 µM.

With `Cc1occc1-c1nnc(SCC(=O)NCc2cccs2)n1-c1ccc(F)cc1`, the Potency was inactive: > 76.9 µM. As to `NC(=O)C1CCN(C(=O)CN2CCN(c3cccc(C(F)(F)F)c3)CC2)CC1`, the Potency is inactive: > 76.9 µM.

With `C=CCn1cnc2c(c1=O)c1nc3ccccc3nc1n2/N=C/c1cccc(OC)c1`, the Potency result is “inactive”. Next, `CCOc1cc(N2CCOCC2)c(OCC)cc1NC(=O)CCS(=O)(=O)c1ccc(Cl)cc1`: inactive: > 76.9 µM; `COc1ccc(OCC(=O)Nc2ccc(N3CCOCC3)c(Cl)c2)cc1`: “inactive”; `CCCCC(=O)Nc1ccc(NC(=O)CC)cc1OC`: inactive: > 76.9 µM. As for `CCn1cc(C(C)NC(=O)COc2ccc(Cl)cc2C)c(C)n1` (stereo unspecified), the figure is inactive: > 76.9 µM. Next, `CCOc1ccccc1Nc1ncnc2ccccc12`: inactive: > 76.9 µM.

`CCOc1c2c(nc3ccc(Cl)cc13)CCC2`: the Potency was inactive: > 76.9 µM.

Turning to `Cc1ccc2[nH]c(=O)c(CN(Cc3cccs3)Cc3nnnn3CC3CCCO3)cc2c1` (stereo unspecified), the Potency is inactive: > 76.9 µM. Next, `O=C(c1ccco1)N1CCN(c2ncnc3c2cnn3-c2ccccc2)CC1`: inactive: > 76.9 µM; `COC(=O)c1ccc(Cl)c(NS(=O)(=O)c2ccc3c(c2)OCCO3)c1`: inactive: > 76.9 µM; `COc1ccc(CNC(=O)c2csnn2)cc1`: inactive: > 76.9 µM.

For the molecule `Cc1ccc2[nH]c(C(=O)O)c(NC(=O)CN3CCN(c4cccc(C)c4C)CC3)c2c1`, the Potency is inactive: > 76.9 µM. Next, `c1coc(Cn2nnnc2CN2CCN(C3CCCCC3)CC2)c1`: inactive: > 76.9 µM; `O=C(CCC(=O)N(Cc1ccco1)C(C(=O)NC1CCCC1)c1ccncc1)Nc1cccnc1` (stereo unspecified): “inactive”. As to `COc1cccc(C2=NOC(C(=O)Nc3cc(OC)c(OC)c(OC)c3)C2)c1` (stereo unspecified), the Potency is inactive: > 76.9 µM.

For `CCOC(=O)N1CCN(Cc2cc(=O)oc3cc4c(cc23)CCC4)CC1`, the Potency is inactive: > 76.9 µM. As for `CCC1(NC(C)=O)CC2CC1CC2NC(C)=O` (stereo unspecified), the figure is inactive: > 76.9 µM; as for `COc1cc(OC)cc(-n2c3nc4ccccc4nc3c3c(=O)n(CC4CCCO4)cnc32)c1` (stereo unspecified), inactive: > 76.9 µM. As for `C=CCN(C(=O)CNC(=O)c1ccco1)C(C(=O)NC1CCCCC1)c1ccccc1` (stereo unspecified), the figure is inactive: > 76.9 µM; as for `COc1cc(-c2csc(N3CCOCC3)n2)cc(OC)c1OC`, inactive: > 76.9 µM. Next, `O=C(CCS(=O)(=O)Cc1ccccc1)N1CCN(Cc2ccccc2)CC1`: inactive: > 76.9 µM; `CCOC(=O)c1cccc(NC(=O)C2CCCO2)c1` (stereo unspecified): inactive: > 76.9 µM; `O=C(C1CCN(S(=O)(=O)c2cccs2)CC1)N1CCc2ccccc2C1`: inactive: > 76.9 µM. In the case of `CCOC(=O)n1c(SCC(=O)N(CC)CC)nc2ccccc21`, the Potency is inactive: > 76.9 µM. As for `CCOc1ccc(-c2noc(COC)n2)cc1OC`, the figure is inactive: > 76.9 µM; as for `COc1ccc(N2CCN(c3ccc(NC(=O)C4CCCCC4)cc3C#N)CC2)cc1`, inactive: > 76.9 µM. Take `COC(=O)c1ccc(OC)c(CSc2nnc(COc3ccc(OC)cc3)o2)c1`: the Potency is inactive: > 76.9 µM.

Turning to `CCOC(=O)N1CCC(Nc2c(Nc3cccc(CC)c3)c(=O)c2=O)CC1`, the Potency was inactive: > 76.9 µM.

Turning to `COCCCN1C(=O)C(=O)/C(=C(/O)c2ccc(OC(C)C)cc2)C1c1ccc(O)c(OC)c1` (stereo unspecified), the Potency was inactive: > 76.9 µM.

With `COc1ccc(CN2CCC(C(=O)N(C)CCc3ccc(OC)c(OC)c3)CC2)c(OC)c1`, the Potency is inactive: > 76.9 µM. Next, `COCCn1c(-c2ccc(-c3ccccc3Cl)o2)nc2c1c(=O)[nH]c(=O)n2CC(C)C`: inactive: > 76.9 µM; `Cc1ccc(C(=O)Nc2nccs2)cc1S(=O)(=O)N1CCCCC1`: inactive: > 76.9 µM. As for `O=c1cc(N2CCc3ccccc3C2)[nH]c(=O)n1C1CCCCC1`, the figure is inactive: > 76.9 µM. Next, `COC(=O)CSc1cc(C)nc(NC(C)=O)n1`: inactive: > 76.9 µM; `N#CCSc1nc2ccccc2c(=O)n1CCC(=O)NCCc1ccccc1`: inactive: > 76.9 µM; `Cc1nc2ncnn2c(N2CCN(C(c3ccccc3)c3ccccc3)CC2)c1C`: inactive: > 76.9 µM. With `C=CCn1c(C)cc(C(=O)CN2C(=O)c3ccccc3C2=O)c1C`, the Potency is inactive: > 76.9 µM.

As for `Cc1sc2ncnc(NCCCn3ccnc3)c2c1C`, the Potency entry is “inactive”. As for `CCN(CC)S(=O)(=O)c1ccc(C(=O)NC2=C(C(=O)OC)SCC2)cc1`, the figure is inactive: > 76.9 µM; as for `CNc1nc(OC)nc(N2CCOCC2)n1`, inactive: > 76.9 µM; as for `CCC(=O)c1cc2c(cc1NC(=O)c1ccc(C)cc1)OCCO2`, inactive: > 76.9 µM. For `O=C(CN1CCCc2ccccc21)NCc1ccc2c(c1)OCO2`, the Potency was inactive: > 76.9 µM. Next, `C=CCn1c(SCC(=O)Nc2cccc(C)c2)nnc1-c1cnccn1`: inactive: > 76.9 µM.

As for `O=C(Cn1nnc(-c2ccc(Cl)cc2)n1)NCCC1=CCCCC1`, the Potency was inactive: > 76.9 µM. Next, `Oc1c(C(Nc2nc3ccccc3s2)c2ccco2)ccc2cccnc12` (stereo unspecified): inactive: > 76.9 µM; `Cc1cnn(C(=S)NCCc2ccccc2)c1`: inactive: > 76.9 µM. As for `CN(C)c1nc(N2CCOCC2)nc(N(c2ccccc2)c2ccccc2)n1`, the figure is inactive: > 76.9 µM. As for `COc1ccc(CNc2ccc(-c3ccc(OC)cc3)nn2)cc1`, the figure is inactive: > 76.9 µM; as for `CCC(CC)C(=O)Nc1cccc(C(=O)N2CCOCC2)c1`, inactive: > 76.9 µM.

In the case of `Cc1nnc(SCC(=O)N2c3ccccc3CC2C)s1` (stereo unspecified), the Potency is inactive: > 76.9 µM. As for `CSc1nc(C2CC2)cc(-c2cccs2)c1C#N`, the entry is “inactive”; as for `Cc1cccc(CS(=O)(=O)Cc2ccc(C(=O)NCC3CCCO3)o2)c1` (stereo unspecified), inactive: > 76.9 µM; as for `Cc1cc(C)c(S(=O)(=O)N(C)CC(N)=O)c(C)c1`, inactive: > 76.9 µM. As for `Cc1ccc2oc(-c3cccc(NC(=O)C4CCCO4)c3)nc2c1` (stereo unspecified), the figure is inactive: > 76.9 µM.
